Measurements: PubChem BioAssay AID504466 (National Center for Advancing Translational Sciences (NCATS), 2011)
The whole screen tested about 330,000 compounds, of which about 4,200 (1.3%) were called active. This list was built around the results that the source calls inconclusive (neither active nor inactive); the mix of calls is not that of the screen. The call rests on the fitted dose curve; in most records, active means well fitted activation curve with a large enough effect; inconclusive means small, poorly fitted or top-dose-only effect; inactive means no such curve, though single readings can be large or run the other way. Where the call is inconclusive, the potency comes from a doubtful curve fit.

Test: qHTS screen for small molecules that induce genotoxicity in human embryonic kidney (HEK293T) cells expressing luciferase-tagged ELG1; further: nearly all actives have a fitted effect of over 60% in size; on activity change, positive = activation: % of control where 0% means no effect
Conditions: HEK293T ELG1-luciferase reporter, luminescence, 16 h; series mostly up to 46 µM; activity change, positive = activation: at the top concentration
In short: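 After overnight (16 hr) compound treatment at 37 °C, ELG1-luciferase HEK293T cells were lysed with ONE-Glo; luminescence quantified 30 min later at room temperature.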
Potency means the concentration at half of the fitted maximal effect; tags describe the fitted curve by direction and shape.

Row | SMILES | activity change, positive = activation | Potency
1 | O=[N+]([O-])c1cccc(-c2cn3ccccc3n2)c1 | inactive: 1.35% | 
2 | CCS(=O)(=O)c1ccc(-c2csc(-c3ccccc3)n2)c(Cl)c1Cl |  | active: 20.6 µM
3 | CCN(CC)CCn1c2ccccc2c2nc3ccccc3nc21 |  | inconclusive: 14.6 µM [activator, partial curve]
4 | CC(=O)Nc1ccc(S(=O)(=O)N2CCN(Cc3cccs3)CC2)cc1 | inactive: -8.09% | 
5 | Cc1cc(C)nc(S/C=C/C(=O)c2ccccc2)n1 |  | inconclusive: 23.1 µM [activator, single point]
6 | CCOC(=O)c1c(CSC(=N)N)n(-c2ccc(C)cc2)c2cc(Br)c(OC(C)=O)cc12 |  | inconclusive: 23.1 µM [activator, single point]
7 | O=C(O)CC1(CC(=O)NCc2ccc(Cl)cc2)CCCCC1 | inactive: 0.0753% | 
8 | C=CCNc1oc(/C=C/c2ccccc2)nc1C#N |  | inconclusive: 2.59 µM [activator, full curve]
9 | COC(=O)c1ccc(NC(=O)Cc2ccccc2)cc1 |  | inconclusive: 23.1 µM [activator, partial curve, poor fit]
10 | Nc1ccc(C#Cc2ccc3c(=O)c4ccccc4oc3c2)cc1 |  | inconclusive: 14.6 µM [activator, partial curve, poor fit]
11 | CCCc1cc(=O)oc2cc(C)cc(OCC(=O)NCc3ccncc3)c12 | inactive: -4.45% | 
12 | Cc1cc2nc(-c3ccccn3)c(-c3ccccn3)nc2cc1C |  | inconclusive: 20.6 µM [activator, single point]
13 | O=S(=O)(Nc1ccc2c(c1)OCCO2)c1cccs1 |  | active: 7.31 µM
14 | CC(=O)c1cccc(NC(=S)NC(=O)c2ccc(Cl)cc2)c1 |  | inconclusive: 11.6 µM [activator, partial curve, poor fit]
15 | CC(C)(C)C(=O)COC(=O)CNC(=O)c1ccc(Oc2ccccc2)cc1 |  | inconclusive: 0.058 µM [activator, full curve, poor fit]
16 | CCn1cc(S(=O)(=O)NCCc2ccccc2OC)cn1 | inactive: 0.352% | 
17 | COc1cccc(CNc2nc3nc(C)c(Cl)c(C)n3n2)c1 |  | inconclusive: 10.3 µM [activator, partial curve]
18 | CC1(C)Cc2nc3sc4c(=O)[nH]cnc4c3cc2CS1 |  | inconclusive: 13 µM [activator, partial curve]
19 | CCC1CCC(C(=O)NC(C(=O)Nc2ccc3c(c2)OCCO3)C(C)C)CC1 (centres undefined) |  | active: 16.4 µM
20 | CCOc1ccc(C(=O)NCCCCNC(=O)c2ccc(OCC)cc2)cc1 |  | inconclusive: 13 µM [activator, partial curve, poor fit]
21 | CC(=O)Nc1ccc2nc3ccccc3nc2c1 |  | active: 20.6 µM
22 | COc1cc(-n2c(=O)c3ccccc3n(CC(=O)c3ccc(Br)cc3)c2=O)cc(OC)c1OC |  | inconclusive: 29.1 µM [activator, single point]
23 | Clc1ccc(-c2c[n+](Cc3ccc(Cl)c(Cl)c3)c3n2CCC3)cc1 | inactive: -9.3% | 
24 | O=C(COC(=O)c1cc(Cl)ccc1O)c1ccc2c(c1)OCO2 | inactive: 7.93% | 
25 | O=C(c1ccco1)N1CCN(c2ncnc3c(-c4ccc(Cl)cc4)nsc23)CC1 |  | inconclusive: 8.2 µM [activator, partial curve]

Row | SMILES | activity change, positive = activation | Potency
26 | O=C(Nc1cnc2ccccc2c1)N1CCCCC1 |  | inconclusive: 4.61 µM [activator, partial curve]
27 | NC(=O)C1CCN(c2nc(-c3ccc(Br)cc3)cs2)CC1 |  | active: 6.51 µM
28 | Cc1cccc(NC(=O)/C(C#N)=C/c2cn(CC(=O)NCc3ccco3)c3ccccc23)c1C |  | inconclusive: 3.66 µM [activator, full curve, poor fit]
29 | Cc1nc2nc(-c3cccs3)cn2nc1C |  | inconclusive: 7.31 µM [activator, partial curve]
30 | CCOC(=O)CCn1nc(-c2ccc(Cl)cc2)cc1N |  | inconclusive: 20.6 µM [activator, partial curve]
31 | CC(=O)c1cccc(NC(=O)Nc2ccc(C)cc2)c1 |  | inconclusive: 8.2 µM [activator, partial curve]
32 | CCc1ccn2cc(-c3ccc4c(c3)OCO4)nc2c1 |  | active: 0.184 µM
33 | O=C(NCc1ccccc1)C1CCCN(C(=O)Nc2ccccc2)C1 (centres undefined) |  | inconclusive: 20.6 µM [activator, single point]
34 | COc1cccc(Nc2nc(N)nc(C(F)(F)F)n2)c1 |  | inconclusive: 29.1 µM [activator, single point]
35 | Cc1cc(=O)[nH]c(N=N/C(=N/Nc2ccc(O)cc2)c2ccccc2)n1 |  | inconclusive: 3.66 µM [activator, single point]
36 | COc1ccc2c(COC(=O)c3n[nH]c4ccccc34)cc(=O)oc2c1 |  | inconclusive: 3.16 µM [activator, partial curve, poor fit]
37 | CCN(CC)CCOC(=O)c1cccc2c1-c1ccccc1C2O (centres undefined) | inactive: -0.0792% | 
38 | N#C/C(=C\c1cccs1)C(=O)N1CCOCC1 | inactive: -0.0425% | 
39 | Nc1nc2ccccc2n1C(=O)c1ccc(F)cc1 |  | active: 1.16 µM
40 | CCC(=O)NC(c1cccc([N+](=O)[O-])c1)c1c(O)ccc2ccccc12 (centres undefined) | inactive: -0.0652% | 
41 | CC(=O)NCc1ccc(-c2nc3ccccc3s2)cc1 |  | inconclusive: 2.91 µM [activator, partial curve]
42 | Cn1c(N)c(C(=O)COC(=O)CNC(=O)c2ccccc2F)c(=O)n(C)c1=O | inactive: 1.59% | 
43 | CC(/C=N\Nc1nnc2c(n1)[nH]c1c(C)cccc12)=C\c1ccco1 |  | inconclusive: 18.4 µM [activator, partial curve, poor fit]
44 | COc1ccc(Cc2nc3ccc(C(=O)N4CCCC4)cc3o2)cc1OC | inactive: -3.52% | 
45 | O=C(O)c1ccc(N=NN2CCCCC2)cc1 |  | inconclusive: 0.58 µM [activator, full curve, poor fit]
46 | Cc1ccc(CCC(=O)Nc2ccccc2F)s1 |  | active: 10.3 µM
47 | CCC(=O)Nc1ccc(C(=O)OCc2ccccc2)cc1 |  | inconclusive: 16.4 µM [activator, partial curve, poor fit]
48 | Cc1csc(=NC(=O)c2ccccc2)n1C |  | active: 20.6 µM
49 | CCOC(=O)c1sc2nc3c(SCC(=O)O)cc(C(=O)c4cc(F)ccc4O)cn3c(=O)c2c1C | inactive: 4.5% | 
